The IC50 comes from the fitted curve, where viability falls to half of the control; where the fit passes the top or lowest dose, that dose stands as a limit. The AUC spans the tested range (256-fold, ending at the top dose) of the same fit: 1 means no effect, lower means more sensitive. For some of these results: An inferred top dose comes from the curve model; the source does not state it. For some of these results: An entry number marks a drug with two screens in the source, which often give different values.
Columns and labels:
Test in all cases: Viability of human cancer cell lines after 72 h of drug (GDSC screen)
[1] = compound: Nc1ccc(C(=O)Nc2cccc(-c3nc(N4CCOCC4)c4oc5ncccc5c4n3)c2)cn1 [YM201636]; conditions: top dose 5.12 µM; top dose inferred
Method: (§1)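 Human cancer cell lines in 384-well plates, medium with 10% serum, drug for 72 h over a 256-fold dose range (nine 2-fold or five 4-fold steps up to the top dose). Adherent lines were fixed and stained with the nucleic acid dye Syto60, suspension lines read with resazurin; signal relative to control wells, capped at 0 and 100%. One two-parameter sigmoid per drug and line, fitted in a mixed model over all curves with the slope shared within a line.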

[2] = compound: N#CC(c1ccnc(NCCc2cccnc2)n1)c1nc2ccccc2s1 [AS601245]; conditions: top dose 8 µM; top dose inferred
Method: as §1

[3] = compound: Cn1cnc2c(F)c(Nc3ccc(Br)cc3Cl)c(C(=O)NOCCO)cc21 [AZD6244]; conditions: top dose 4 µM; screen: GDSC drug entry 1498; top dose inferred
Method: as §1

[4] = compound: NC(=O)C1CCCc2c1[nH]c1ccc(Cl)cc21 [EX-527]; conditions: top dose 20 µM
Method: as §1

Row | Cell Line | AUC [1] | IC50 [1] [µM] | AUC [2] | IC50 [2] [µM] | AUC [3] | IC50 [3] [µM] | AUC [4] | IC50 [4] [µM]
1 | JIMT-1 (breast, adherent) | 0.952 | > 5.12 | 0.786 | 3.75 | 0.855 | 3.6 | 0.982 | > 20
2 | K2 (melanoma, adherent) | 0.956 | > 5.12 | 0.841 | > 8 | 0.311 | 0.0628 | 0.981 | > 20
3 | KARPAS-620 (haematopoietic neoplasm, suspension) | 0.732 | 1.3 | 0.844 | 4.58 | 0.442 | 0.178 | 0.991 | > 20
4 | KLE (endometrium, adherent) | 0.849 | > 5.12 | 0.73 | 3.33 | 0.935 | > 4 | 0.978 | > 20
5 | KMH-2 (thyroid, adherent) | 0.99 | > 5.12 | 0.809 | 3.64 | 0.452 | 0.188 | 0.976 | > 20
6 | KMRC-1 (kidney, adherent) | 0.94 | > 5.12 | 0.96 | > 8 | 0.84 | 3 | 0.984 | > 20
7 | KMRC-20 (kidney, adherent) | 0.984 | > 5.12 | 0.967 | > 8 | 0.943 | > 4 | 0.985 | > 20
8 | KON (head and neck, adherent) | 0.987 | > 5.12 | 0.747 | 2.5 | 0.95 | > 4 | 0.983 | > 20
9 | KOSC-2 (head and neck, adherent) | 0.955 | > 5.12 | 0.982 | > 8 | 0.813 | 2.29 | 0.985 | > 20
10 | KP-2 (pancreas, adherent) | 0.97 | > 5.12 | 0.777 | 3.5 | 0.473 | 0.21 | 0.985 | > 20
11 | KP-3 (pancreas, adherent) | 0.916 | > 5.12 | 0.873 | > 8 | 0.8 | 2.38 | 0.984 | > 20
12 | KP-4 (pancreas, adherent) | 0.986 | > 5.12 | 0.819 | 4.32 | 0.987 | > 4 | 0.988 | > 20
13 | KU-19-19 (bladder, adherent) | 0.987 | > 5.12 | 0.986 | > 8 | 0.544 | 0.329 | 0.982 | > 20
14 | KYSE-50 (oesophagus, adherent) | 0.92 | > 5.12 | 0.789 | 3.22 | 0.985 | > 4 | 0.979 | > 20
15 | KYSE-70 (oesophagus, adherent) | 0.958 | > 5.12 | 0.817 | 5.01 | 0.981 | > 4 | 0.985 | > 20
16 | KYSE-150 (oesophagus, adherent) | 0.973 | > 5.12 | 0.941 | > 8 | 0.979 | > 4 | 0.987 | > 20
17 | KYSE-180 (oesophagus, adherent) | 0.953 | > 5.12 | 0.798 | 3.62 | 0.934 | > 4 | 0.983 | > 20
18 | KYSE-220 (oesophagus, adherent) | 0.927 | > 5.12 | 0.927 | > 8 | 0.824 | 2.56 | 0.985 | > 20
19 | KYSE-270 (oesophagus, adherent) | 0.92 | > 5.12 | 0.802 | 3.28 | 0.954 | > 4 | 0.989 | > 20
20 | KYSE-510 (oesophagus, adherent) | 0.959 | > 5.12 | 0.823 | 3.71 | 0.971 | > 4 | 0.992 | > 20
21 | KYSE-520 (oesophagus, adherent) | 0.946 | > 5.12 | 0.973 | > 8 | 0.882 | > 4 | 0.981 | > 20

Row | Cell Line | AUC [1] | IC50 [1] [µM] | AUC [2] | IC50 [2] [µM] | AUC [3] | IC50 [3] [µM] | AUC [4] | IC50 [4] [µM]
22 | LC-1-sq (lung squamous cell carcinoma, adherent) | 0.971 | > 5.12 | 0.956 | > 8 | 0.976 | > 4 | 0.983 | > 20
23 | LCLC-97TM1 (large cell lung carcinoma, adherent) | 0.865 | > 5.12 | 0.717 | 2.21 | 0.806 | 2.27 | 0.982 | > 20
24 | LCLC-103H (large cell lung carcinoma, adherent) | 0.915 | > 5.12 | 0.727 | 2.05 | 0.99 | > 4 | 0.988 | > 20
25 | LK-2 (lung squamous cell carcinoma, adherent) | 0.862 | 3.99 | 0.773 | 2.93 | 0.988 | > 4 | 0.989 | > 20
26 | LN-18 (glioma, adherent) | 0.994 | > 5.12 | 0.888 | 6.01 | 0.993 | > 4 | 0.993 | > 20
27 | LN-405 (glioma, adherent) | 0.949 | > 5.12 | 0.873 | > 8 | 0.95 | > 4 | 0.983 | > 20
28 | LNCaP-Clone-FGC (prostate, adherent) | 0.788 | 2.6 | 0.842 | 6.84 | 0.97 | > 4 | 0.983 | > 20
29 | LNZTA3WT4 (glioma, adherent) | 0.961 | > 5.12 | 0.946 | > 8 | 0.944 | > 4 | 0.988 | > 20
30 | LOU-NH91 (lung squamous cell carcinoma, adherent) | 0.959 | > 5.12 | 0.883 | > 8 | 0.887 | > 4 | 0.986 | > 20
31 | LS-180 (large intestine, adherent) | 0.984 | > 5.12 | 0.856 | 7.94 | 0.608 | 0.516 | 0.982 | > 20
32 | LU-99A (large cell lung carcinoma, adherent) | 0.86 | 4.2 | 0.892 | > 8 | 0.921 | > 4 | 0.987 | > 20
33 | LU-135 (small cell lung carcinoma, suspension) | 0.871 | 3.49 | 0.725 | 1.9 | 0.987 | > 4 | 0.992 | > 20
34 | LoVo (large intestine, adherent) | 0.966 | > 5.12 | 0.729 | 2.26 | 0.873 | 3.91 | 0.987 | > 20
35 | M14 (melanoma, adherent) | 0.807 | 2.79 | 0.892 | > 8 | 0.272 | 0.054 | 0.985 | > 20
36 | M059J (glioma, adherent) | 0.955 | > 5.12 | 0.737 | 2.53 | 0.951 | > 4 | 0.961 | > 20
37 | MC-IXC (neuroblastoma, adherent) | 0.933 | 4.57 | 0.869 | 4.28 | 0.994 | > 4 | 0.996 | > 20
38 | MCF7 (breast, adherent) | 0.986 | > 5.12 | 0.641 | 1.25 | 0.982 | > 4 | 0.982 | > 20
39 | MDA-MB-157 (breast, adherent) | 0.938 | > 5.12 | 0.789 | 3.63 | 0.986 | > 4 | 0.985 | > 20
40 | MDA-MB-175-VII (breast, adherent) | 0.922 | > 5.12 | 0.909 | > 8 | 0.977 | > 4 | 0.987 | > 20
41 | MDA-MB-231 (breast, adherent) | 0.986 | > 5.12 | 0.87 | > 8 | 0.839 | 2.97 | 0.975 | > 20
42 | MDA-MB-330 (breast, adherent) | 0.897 | > 5.12 | 0.827 | 5.81 | 0.975 | > 4 | 0.985 | > 20

Row | Cell Line | AUC [1] | IC50 [1] [µM] | AUC [2] | IC50 [2] [µM] | AUC [3] | IC50 [3] [µM] | AUC [4] | IC50 [4] [µM]
43 | MDA-MB-361 (breast, adherent) | 0.846 | 3.69 | 0.809 | 4.14 | 0.967 | > 4 | 0.984 | > 20
44 | MDA-MB-415 (breast, adherent) | 0.966 | > 5.12 | 0.878 | > 8 | 0.933 | > 4 | 0.979 | > 20
45 | MDA-MB-436 (breast, adherent) | 0.911 | > 5.12 | 0.895 | > 8 | 0.877 | > 4 | 0.98 | > 20
46 | MDA-MB-453 (breast, adherent) | 0.803 | 2.89 | 0.928 | > 8 | 0.984 | > 4 | 0.972 | > 20
47 | MDA-MB-468 (breast, adherent) | 0.934 | > 5.12 | 0.922 | > 8 | 0.986 | > 4 | 0.969 | > 20
48 | ME-180 (cervix, adherent) | 0.836 | 3.62 | 0.951 | > 8 | 0.876 | > 4 | 0.985 | > 20
49 | MEL-JUSO (melanoma, adherent) | 0.931 | > 5.12 | 0.741 | 2.69 | 0.592 | 0.46 | 0.982 | > 20
50 | MES-SA (uterus, adherent) | 0.992 | > 5.12 | 0.869 | 5.57 | 0.965 | > 4 | 0.99 | > 20
51 | MFE-280 (endometrium, adherent) | 0.805 | 3.45 | 0.944 | > 8 | 0.98 | > 4 | 0.947 | > 20
52 | MFE-296 (endometrium, adherent) | 0.935 | > 5.12 | 0.79 | 3.87 | 0.957 | > 4 | 0.979 | > 20
53 | MFE-319 (endometrium, adherent) | 0.953 | > 5.12 | 0.677 | 1.54 | 0.919 | > 4 | 0.989 | > 20
54 | MG-63 (osteosarcoma, adherent) | 0.984 | > 5.12 | 0.777 | 3.74 | 0.845 | 3.61 | 0.979 | > 20
55 | MHH-ES-1 (Ewing sarcoma, adherent) | 0.647 | 0.813 | 0.831 | 4.98 | 0.961 | > 4 | 0.985 | > 20
56 | MIA-PaCa-2 (pancreas, adherent) | 0.975 | > 5.12 | 0.611 | 1.04 | 0.782 | 1.84 | 0.984 | > 20
57 | MKN1 (stomach, adherent) | 0.943 | > 5.12 | 0.759 | 2.93 | 0.894 | > 4 | 0.985 | > 20
58 | MKN45 (stomach, adherent) | 0.929 | > 5.12 | 0.893 | > 8 | 0.903 | > 4 | 0.98 | > 20
59 | ML-1 (thyroid, adherent) | 0.882 | > 5.12 | 0.692 | 1.92 | 0.893 | > 4 | 0.984 | > 20
60 | MOG-G-CCM (glioma, adherent) | 0.851 | 4.98 | 0.816 | 5.42 | 0.948 | > 4 | 0.973 | > 20
61 | MOG-G-UVW (glioma, adherent) | 0.956 | > 5.12 | 0.853 | 5.97 | 0.894 | > 4 | 0.985 | > 20
62 | MS751 (cervix, adherent) | 0.978 | > 5.12 | 0.878 | 7.03 | 0.916 | > 4 | 0.99 | > 20
